Assay results: PubChem BioAssay AID463173 (ICCB-Longwood Screening Facility, Harvard Medical School, 2010)
Among all 52,000 compounds or so, about 1,700 (3.3%) were called active. No stated cut-off is given here; in the data, active means survival mostly below about 52% (no sharp cut-off); inactive means mostly above about 56%. The list shows a part of the results.

Test system: Wild type
Assay: S. aureus survival, RN4220 and DeltatarO strains – OD600, teichoic acid synthesis inhibitors, primary screen (AID 463173)
Conditions: S. aureus RN4220 wild type/DeltatarO growth, OD600, 18 h, hits give low values, screened at 18.75 µg/mL (by protocol)

Compound | survival
CCOC(=O)C1CCN(C(=O)Cn2ncc3c4ccccc4n(Cc4ccccc4F)c3c2=O)CC1 | inactive: 83%
CCOC(=O)c1ccccc1NC(=O)c1ccco1 | inactive: 121%
Cc1cccc(N2CCN(CCCNC(=O)c3sc4ncccc4c3-n3cccc3)CC2C)c1 (centres undefined) | inactive: 79%
O=C(Cn1c(-c2cccs2)cc2cc(F)ccc21)NCCCN1CCN(c2ccccc2F)CC1 | inactive: 73%
Cc1nn(CCCC(=O)NCc2cccc(Cl)c2)c(=O)c2c1sc1ccccc12 | inactive: 84%
Cc1nnc(NC(=O)CSc2nnc3c(n2)[nH]c2ccccc23)s1 | inactive: 80%
Cc1ccc(F)cc1NC(=O)c1ccc(Cn2nc(N3CCN(c4ccccc4)CC3)ccc2=O)o1 | inactive: 127%
O=c1n(Cc2ccc(F)cc2)nc2n1-c1cc(Cl)ccc1OC2 | inactive: 76%
COc1ccc(NC(=O)C2CCN(c3nc4ccccc4nc3C(F)(F)F)CC2)cc1 | inactive: 130%
CCOc1ccccc1CNC(=O)c1cnc2c(-c3ccc(OCC)c(OCC)c3)c(C)nn2c1C | inactive: 72%
O=C(Cn1cc(SCc2ccccc2)c2ccccc21)N1CCCCCC1 | inactive: 83%
Cc1cc(NC(=O)C2CCCCC2)no1 | inactive: 109%
COc1ccc(-c2cn3nc(N4CCC(C(=O)Nc5ccc(Cl)cc5C)CC4)sc3n2)cc1 | inactive: 78%
Cc1oc(-c2ccc(C(=O)NCCc3ccc(Cl)cc3)cc2)nc1CSc1ccccc1 | inactive: 59%
COc1ccc(-n2nc(C(=O)NCCc3ccc(OC)c(OC)c3)c3c4ccccc4n(C)c3c2=O)cc1Cl | inactive: 91%
Cc1ccc(N2CCN(c3c(CN4CCCC4)c(=O)oc4ccccc34)CC2)c(C)c1 | inactive: 74%
Cc1ccc2c(c1)N(CC(=O)OCC(=O)NCc1ccccc1)C(=O)CO2 | inactive: 103%
COCCCNC(=O)c1c(NC(=O)c2cc(=O)c3ccccc3o2)sc2c1CCCC2 | inactive: 111%
Cc1ccc(-c2nc(SCC(=O)N3CCc4ccccc43)c3c(=O)n(C)c(=O)n(C)c3n2)cc1 | inactive: 81%
Cc1ccc2nc(-c3ccc(Cl)c(NC(=O)c4cccc([N+](=O)[O-])c4C)c3)oc2c1 | inactive: 127%
Cc1ccccc1CN1C(=O)c2ccccc2Sc2ccc(C(=O)OCc3ccco3)cc21 | inactive: 77%
CCOC(=O)C1CCC(CN(Cc2c(Cl)cccc2Cl)S(=O)(=O)c2ccc(Cl)cc2)CC1 (centres undefined) | inactive: 88%
CCn1ccc2cc(S(=O)(=O)N3CCC(C(=O)NCc4ccc(OC)cc4)CC3)ccc21 | active: -3%
O=C(NCc1ccccc1)c1ccc2c(c1)N(Cc1cccc(Cl)c1)C(=O)c1ccccc1S2(=O)=O | inactive: 74%
